Assay results from PubChem BioAssay AID1508624 (National Center for Advancing Translational Sciences (NCATS), 2021).
Hit rate of the full screen: of about 48,000 compounds, about 120 (0.25%) were called active. Another 4% or so got no clear call; they are omitted. Calls follow the shape of the dose curve; as a rule, active = well fitted activation curve with a large enough effect; inconclusive = small, poorly fitted or top-dose-only effect, or another doubt; inactive = no such curve, though single readings can be large or run the other way. The list shows a part of the results.

Assay: Primary qHTS for Identification of Small Molecule Activators of Huntingtin-Antisense Promoter Activity; also: nearly all actives have a fitted effect of over 55% in size
Settings: HEK293 HTT-AS promoter firefly luciferase reporter, 24 h; series mostly up to 57.5 µM; activity change, positive = activation: at the top concentration
Procedure, shortened: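 HEK293 Fluc reporter, 2,500 cells/well, 24 h pre-culture; cpds up to 57.5 uM final, 24 h 37 degrees C; Dual-Glo, 10 min RT; normalized vehicle = 0%, zero RLU = -100%.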

Activity change, positive = activation, inactive:
O=C(Nc1ccc(C(F)(F)F)cc1)C1CCCN(S(=O)(=O)c2cccc3cccnc23)C1 (configuration not stated) -32.1%
CCC1CCCCN1C(=O)CSc1n[nH]c(-c2ccccc2Cl)n1 (configuration not stated) 17.2%
CCN(c1ccc(OC)cc1)S(=O)(=O)c1nnc(NC(=O)c2ccccc2C)s1 -33.3%
Cc1ccccc1OCC(=O)Nc1ccc(OCc2cc(=O)n3ccsc3n2)cc1 -4.08%
CCOC(=O)c1cccc(NC(=O)N2CCC(CN3CCc4ccccc4C3)CC2)c1 -12.3%
O=C(Cc1ccc(F)cc1)NCc1nc2cccnc2n1Cc1ccc(F)cc1 -13.3%
FC(F)(F)c1cccc(N2CCN(Cc3nnc(-c4ccc5c(c4)OCO5)o3)CC2)c1 -4.1%
COc1ccc(CCNC(=O)C2CCN(c3ncnc4c3nc3n4CCCCC3)CC2)c(OC)c1 -17.9%
CCOc1ccc(S(=O)(=O)c2c[nH]c3ccccc3c2=O)cc1 -1.75%
Cc1ccccc1C(=O)Nc1ccc2nc(Nc3cccc(C(F)(F)F)c3)cc(C)c2c1 -45.2%
NS(=O)(=O)c1ccc(CCNC(=O)c2ccc3nc(Cc4ccccc4)oc3c2)cc1 -8.31%
CCCc1cc(=O)oc2cc(C)c3c(-c4cccc(OC)c4)coc3c12 -6.21%
CC(C)(C)C1CCc2c(sc(NC(=O)CCC(=O)O)c2C(=O)Nc2ccccc2C(F)(F)F)C1 (configuration not stated) -54.5%
CC1CCCN(Cc2nc3c(c(=O)n(C)c(=O)n3C)n2Cc2ccc(Cl)cc2Cl)C1 (configuration not stated) 12.5%
COc1cccc(-c2nc(SCC(=O)NCC3CCCO3)c(-c3ccc(F)cc3)[nH]2)c1 (configuration not stated) -13.9%
CCOC(=O)c1cccc(NC(=O)N2CC(CC)Sc3ccccc32)c1 (configuration not stated) -7%
CNC(=O)CN1CCC(Oc2cc3c(Nc4cccc(Cl)c4F)ncnc3cc2OC)CC1 -25.7%
COc1ccc(CCNC(=O)CCCCCn2c(=O)[nH]c3cc(OC)c(OC)cc3c2=O)cc1OC 0.135%
Cc1ccc(C)c(Cn2c(C)c(CNCc3ccc(F)cc3)c(C(=O)O)c2C)c1 -17.8%
CC(=O)Nc1nnc(SCc2cc(=O)c3cccc(C)c3[nH]2)s1 -22.6%
CC1=C(C(=O)Nc2ccc(C)cc2C)C(c2cccn2C)n2ncnc2N1 (configuration not stated) -3.52%
CC(C)C(=O)Nc1cccc(NC2=NS(=O)(=O)c3ccccc32)c1 -3.36%
Cc1ccc(C)c(N2CCN(c3nc4ccccc4c4nc(-c5cccnc5)nn34)CC2)c1 -11.4%
CCOC(=O)c1cccc(NC(c2nnc(-c3ccccc3)o2)c2ccccc2F)c1 (configuration not stated) -24.5%
NC(N)=NCCN1CCCCCCC1 -0.499% [at 0.74 µM, percent change from vehicle, -100% = no light]
Cc1ccc2c(c1)c(=O)c(C(=O)c1ccncc1)cn2CC(=O)Nc1ccccc1Cl -7.27%
CCc1ccc(C2=CC(c3cccc(Br)c3)n3nnnc3N2)cc1 (configuration not stated) -26.2%
CCc1ccc(NC(=O)Cn2c(=O)oc3cc(S(=O)(=O)NCc4ccccc4)ccc32)cc1 -38.1%
Cc1ccc(CNC(=O)C2CCCN(c3nnc(-n4c(C)ccc4C)s3)C2)cc1 (configuration not stated) -6.5%
COc1ccc(NC(=O)CSc2nc(O)c(C/C=C/c3ccccc3)c(=O)[nH]2)cc1 -17%
CCOc1ccc(NC(=O)Cn2c(=O)n(CC3CCCO3)c(=O)c3ccccc32)cc1 (configuration not stated) -10%
CCc1ccc(NC(=O)CSc2nc(C)cc(COC)c2C#N)cc1 -6.71%
CCc1ccc(-n2nc(C)c3c(C)cc(=O)n(CC(=O)NCc4ccc(C)cc4)c32)cc1 9.07%
CC(C)CCNc1nc2c(S(=O)(=O)c3ccc(Br)cc3)nnn2c2ccsc12 -16.2%
CCc1cc2c(cc3c(=O)n(CC(=O)N4CCN(c5cc(Cl)ccc5C)CC4)nc(CC)n32)s1 -1.37%
O=C(NCc1cccnc1)C(=O)NCC(c1cccnc1)N1CCN(c2ccccc2)CC1 (configuration not stated) -15.7%
CCCCCCc1cc2cc(-c3nnc(-c4ccc(C)cc4)o3)c(=O)oc2cc1O -19.8%
O=C(NCc1ccccc1)C1CCN(C(=O)c2cnn(-c3ccccc3)c2-n2cccc2)CC1 -28.8%
C=Cc1ccc(Cn2c(=O)n(-c3ccc(C)cc3)c(=O)c3c2c2cc(OC)ccc2n3C)cc1 -6.52%
COc1ccc2cc(C(=O)NCc3ccc4c(c3)CCN4C(=O)c3ccc(C)cc3)[nH]c2c1 -28.9%
CCOc1ccc2nc(N3CCCC(C(=O)NCc4ccccc4Cl)C3)sc2c1 (configuration not stated) 30.5%
O=C(NCc1ccccc1Cl)c1ccc(CSCc2cccc(F)c2)o1 -16%
Nc1nc(N)nc(-c2cc(Cl)ccc2Cl)n1
CCN1CCCC1CNC(=O)c1cc(S(=O)(=O)CC)c(N)cc1OC (configuration not stated)
Cc1ccc(-n2nnnc2CNC(=O)c2ccccc2F)cc1C 0.635%
O=C(O)CCn1cnc2onc(-c3ccccc3Cl)c2c1=O -9.44%
Cc1cccn2c(=O)cc(COc3ccc(NC(=O)c4cccc(F)c4)cc3)nc12 -9.09%
CCC1CCCCN1C(=O)Cn1c(=O)n(CCCCCC(=O)NCc2ccc(F)cc2)c(=O)c2sccc21 (configuration not stated) 4.65%
O=C(Nc1c(C(=O)Nc2cccc(C(F)(F)F)c2)oc2ccccc12)c1cc(=O)c2ccccc2o1 9.5%
O=C(NCc1ccc(Cl)cc1)c1ccc2c(c1)NC(=O)C(CS(=O)(=O)Cc1ccccc1Cl)N2 (configuration not stated) -45.2%
CCc1cccc(NC(=O)Cn2cc(C(=O)c3ccncc3)c(=O)c3cc(C)c(C)cc32)c1 -28.2%
CCn1c(=O)c2cc(C(=O)NCCCN(C)Cc3ccccc3)sc2c2ccccc21 -3.23%
O=c1[nH]c(-c2ccc(C(F)(F)F)cc2)nc2c1CSCC2 -4.61%
COc1ccccc1CNC(=O)CCC1N=C2c3ccccc3N=C(SCc3ccccc3Cl)N2C1=O (configuration not stated) -30.7%
CCSc1nc(-c2ccc(Cl)cc2)nc2c1Cc1c(CO)cnc(C)c1O2 -15.9%
CCCS(=O)(=O)Nc1ccc(F)c(C(=O)c2c[nH]c3ncc(Cl)cc23)c1F -41.1%
COc1ccc(-c2cc(C(F)(F)F)n3nc(C(=O)Nc4cccc(C(F)(F)F)c4)c(Br)c3n2)cc1 -3.86%
CCOC(=O)c1ccc(NC(=O)CCn2cnnn2)cc1 -0.867%
COC(=O)c1cnc(N2CCN(c3ccccc3OC)CC2)c2ccccc12 6.54%
CCOC(=O)c1sc2ccccc2c1S(=O)(=O)NCc1ccc(F)cc1 -18.8%
CC1=C(c2ccc(Cl)cc2)S(=O)(=O)N=C1N1CCN(c2cccc(C(F)(F)F)c2)CC1 -36.8%
COc1ccc(N2CC(NC(=O)COc3ccccc3C)CC2=O)cc1OC (configuration not stated) -15.3%
CCN1c2cc(C)ccc2-n2cccc2C12CCN(C(=O)Nc1cc(OC)c(OC)c(OC)c1)CC2 -28.5%
CCOC(=O)c1c(NC(=O)c2ccc(S(=O)(=O)N3CCCC(C)C3)cc2)sc2c1CCN(C(C)C)C2 (configuration not stated) -21%
Cc1ccc(S(=O)(=O)c2nc(-c3ccco3)oc2SCc2ccccc2Cl)cc1 -7.47%
O=C(Nc1cccc(Cl)c1)Nc1ncc(CCNc2ncnc3ccsc23)s1 -25.6%
CCOC(=O)c1cc(-c2ccccc2)n(-c2cccc(C(=O)N(CC)c3ccccc3)c2)c1C -28.5%
Cc1c2cnn(-c3ccccc3)c(=O)c2c(C)n1C(C)C(=O)Nc1ccc(Br)cc1F (configuration not stated) 18.4%
CC(C)c1ccc2oc(-c3cccc(NC(=O)c4ccc5c(c4)OCCO5)c3)nc2c1 25%
Cc1ccc(-n2c(SCC(=O)Nc3cccc(F)c3)nc3c(oc4ccccc43)c2=O)cc1C -20.6%
COc1ccc(N2CCN(C(=O)NCc3noc4ccccc34)CC2)cc1 -5.84%
Cc1cc(C)cc(-n2ccn3c(CC(C)(C)CC(=O)O)nnc3c2=O)c1 -16.4%
Cc1ccc2oc3c(c(=O)c2c1)C(c1cccc(O)c1)N(Cc1ccccc1Cl)C3=O (configuration not stated) -34.5%
COc1cccc(NC(=O)C2CCCN2S(=O)(=O)c2ccc3c(c2)C(C)(C)C(=O)N3C)c1 (configuration not stated) -24.2%
O=C(Cc1cccs1)NC1CC(=O)N(c2ccc(Cl)cc2)C1 (configuration not stated) -5.86%
CCC1=C[C@@H]2CN(C1)Cc1c([nH]c3ccccc13)[C@@](C(=O)OC)(c1cc3c(cc1OC)N(C)[C@@H]1[C@@](O)(C(=O)OC)[C@H](OC(C)=O)[C@]4(CC)C=CCN5CC[C@]31[C@@H]54)C2 -32.5%
CC(C)Sc1ncc(Cl)c(C(=O)N(Cc2ccc(F)cc2)C2CCS(=O)(=O)C2)n1 (configuration not stated) 6.55%
Cc1ccc(-c2nn3c(-c4ccccc4)nnc3c3ccccc23)cc1 -12.4%
Cc1cccc(C(=O)OCc2cc(=O)n3nc(C4CCCCC4)sc3n2)c1 2.6%
COc1ccc(N2Cc3cccc(C(=O)Nc4ccc(C)c(C)c4)c3C2=O)cc1 -2.78%
O=C(NCCC1=CCCCC1)c1ccc2c(c1)N(Cc1ccccc1F)C(=O)c1ccccc1S2(=O)=O -7.47%
CCc1cccc(N2C(=O)CS(=O)(=O)C23C(=O)N(Cc2ccc(F)cc2)c2ccc(C)cc23)c1 (configuration not stated) -19.8%
CC1=C(C(=O)Nc2ccc(C)cc2)C(c2ccc(Cl)cc2)n2nnnc2N1 (configuration not stated) -9.36%
Cc1ccc(NC(=O)CN2C(=O)C(C)(C)c3ccccc32)cc1 -22.4%
CCOc1ccc(N2CC(NC(=O)Cc3ccccc3)CC2=O)cc1 (configuration not stated) -1.56%
CCOC(=O)c1c(NC(=O)COc2cccc(C(F)(F)F)c2)sc2c1CCCCC2 1.65% [at 11.5 µM, percent change from vehicle, -100% = no light]
O=C(CSc1ncc(CO)n1Cc1ccccc1)Nc1ccc(C(F)(F)F)cc1 -45.2%
COc1cccc(C2c3c(-c4ccccc4O)n[nH]c3C(=O)N2CCc2ccc(OC)c(OC)c2)c1 (configuration not stated) -25.6%
CC(C)COc1ccc(C(=O)N2CCN(CCc3ccccn3)CC2)cc1 -7.51%
O=C(Nc1nnc(S(=O)(=O)N2CCc3ccccc32)s1)c1ccccc1 -24.8%
CCOc1nc(-c2ccc(C)cc2)ccc1-c1noc(-c2ccccc2F)n1 -12.7%
CCc1ccc(-c2nc(-c3cc4ccccc4oc3=O)sc2C)cc1 -20.6%
